# The supplement of paper PMC12217912
# The list shows a part of the results. Sequences were assembled here from the parent chain. Values near 0.05 are background.
# B1: TEV protease; numbered along this chain (parent)
# chain: MGESLFKGPRDYNPISSSICHLTNESDGHTTSLYGIGFGPFIITNKHLFRRNNGTLVVQSLHGVFKVKDTTTLQQHLVDGRDMIIIRMPKDFPPFPQKLKFREPQREERICLVTTNFQTKSMSSMVSDTSCTFPSGDGIFWKHWIQTKDGQCGSPLVSTRDGFIVGIHSASNFTNTNNYFTSVPKNFMELLTNQEAQQWVSGWRLNADSVLWGGHKVFMVKPEEPFQPVKEATQL
# Variants of: B1
# Assay: raw area under fraction-flipped curve 0-4 h after induction (AUC4h, not background-subtracted), DNA-recorder readout of cleavage of the substrate (dimensionless); higher = more cleavage of the substrate by the protease variant
# Conditions: temperature: 34 °C; time window: 0-4 h after rhamnose induction
# Protocol: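 In vivo DNA recorder in E. coli TOP10(DE3) ΔrhaA at 34 °C. Each TEVp single-site mutant (parent TEVp 0) is paired with a single-site variant of the 7-mer TEVs (canonical ENLYFQ|S). The substrate sits between flexible linkers in a Bxb1-sfGFP-TEVs-SsrA fusion, so cleavage stabilises Bxb1 and speeds flipping of a recombination array, read by NGS. The value is the raw area under the fraction-flipped curve over 0-4 h after rhamnose induction (AUC4h), with ≥20 reads per time point. It is not background-subtracted; inactive controls average about 0.047.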
# 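Further: Bxb1 expression induced with 0.2% (w/v) L-rhamnose at OD600 near 0.5, cultures sampled hourly, flipped fraction per protease–substrate barcode pair counted by paired-end Illumina sequencing.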
Variant,area with substrate CNLYFQS,area with substrate FNLYFQS,area with substrate GNLYFQS,area with substrate HNLYFQS,area with substrate INLYFQS,area with substrate LNLYFQS,area with substrate MNLYFQS,area with substrate NNLYFQS,area with substrate SNLYFQS,area with substrate TNLYFQS
E107F,0.0648,0.118,0.0711,0.0398,0.0536,0.0567,0.0604,0.0613,0.0616,0.0689
D91L,0.0749,–,0.0615,0.0719,–,0.0658,0.0717,–,0.0711,0.0616
F6K,0.0681,0.0335,0.0561,0.0815,0.0548,–,0.0696,–,–,–
F6R,0.0629,–,–,0.0566,–,–,–,0.059,0.0589,0.116
P104E,0.0256,–,0.0358,0.0519,–,0.0704,0.0478,0.0477,0.0492,–
R87W,0.0678,0.0266,–,–,0.0419,–,–,–,0.0476,0.0649
R87G,0.0635,0.0562,–,0.0588,0.0381,–,–,–,–,0.0576
R87K,0.0602,0.0491,–,0.0661,0.0562,0.0699,–,0.0775,0.0473,–
F95T,0.0234,–,–,–,–,–,–,0.039,–,–
F41K,0.0492,0.0683,0.0541,0.0419,–,0.0646,0.0438,–,–,0.066
F65S,0.0648,–,–,–,–,–,0.0723,0.0755,–,0.0662
L73F,0.0543,–,–,0.0462,0.0687,0.0628,–,–,0.0579,0.0618
N116M,0.0642,–,–,–,–,–,0.0671,–,–,0.0724
N116R,0.102,0.0941,0.075,–,0.0447,–,–,–,–,0.0567
G54F,0.0522,–,0.076,–,–,0.0651,–,–,0.0561,0.0608
L77M,0.0707,–,–,0.0508,0.0611,0.0567,–,–,0.0603,0.0536
Y34E,0.0772,–,–,0.0506,–,–,–,0.0583,–,0.0672
Y34K,0.0741,–,–,–,–,0.0714,–,0.0592,0.0473,–
Y34N,0.0692,–,–,–,–,–,0.0681,–,0.0698,–
Y34W,0.0723,–,0.0571,–,–,–,–,–,–,0.0749
F101Y,0.0624,0.0642,–,–,0.0504,0.0524,–,–,–,0.0584
F101D,0.0467,–,0.0476,0.065,–,0.0488,–,–,–,0.0564

Variant,area with substrate CNLYFQS,area with substrate FNLYFQS,area with substrate GNLYFQS,area with substrate HNLYFQS,area with substrate INLYFQS,area with substrate LNLYFQS,area with substrate MNLYFQS,area with substrate NNLYFQS,area with substrate SNLYFQS,area with substrate TNLYFQS
F49S,0.0725,0.0508,0.0565,0.0434,0.0396,0.0585,–,–,0.0416,0.0536
G28V,0.047,0.054,0.057,0.0632,0.0592,–,0.0612,0.0731,0.0129,0.0686
T114D,0.0693,0.0513,–,0.0708,0.0542,0.0569,–,–,0.0705,0.047
E103F,0.0643,0.0588,–,0.0619,–,0.0808,0.0853,–,–,–
C111R,0.048,–,–,0.0747,–,–,–,0.0791,–,0.0718
P93F,0.0549,0.0632,0.0554,0.0634,0.0559,–,0.0336,0.0587,–,0.0484
P93Y,0.0575,–,–,–,–,0.0603,–,–,–,–
P93Q,0.0742,–,0.0536,0.0675,0.0537,0.0624,–,–,0.0728,–
P93N,0.0484,–,–,–,0.0738,–,0.074,–,–,0.0825
R109F,0.0872,–,–,0.0704,0.0624,0.0675,–,0.0966,0.069,0.0485
I86A,0.0211,0.0496,–,–,0.0625,–,0.0696,–,0.0701,0.0582
I86G,0.0453,–,–,–,–,0.0356,0.0485,0.034,–,–
L5Y,0.0908,–,–,–,0.0709,0.0843,0.0811,0.0689,–,–
G63K,0.0607,–,–,–,–,0.0647,0.0292,–,–,0.0642
G63C,0.0517,0.0688,–,0.0618,0.083,–,0.065,–,0.0617,0.0649
F38D,0.039,–,–,–,–,–,–,–,–,–
Q97K,0.0561,–,–,–,–,–,–,–,0.0497,–
Q97F,0.0582,0.0706,–,–,–,–,–,–,0.106,0.0567
V58E,0.0486,–,–,0.0243,–,–,–,–,–,–
V58T,0.0492,–,–,–,–,–,–,–,–,–
V58Q,0.0554,0.0362,–,–,–,–,0.0468,0.0552,–,0.0575
L61V,0.0647,–,0.061,0.0631,0.0755,0.0576,0.0463,–,–,–

# Same assay, conditions: temperature: 34 °C; time window: 0-4 h after rhamnose induction
Variant,area with substrate WNLYFQS,area with substrate PNLYFQS,area with substrate QNLYFQS,area with substrate YNLYFQS,area with substrate KNLYFQS,area with substrate VNLYFQS,area with substrate RNLYFQS
E107F,0.0603,–,–,–,–,–,–
D91L,0.0662,0.0679,0.114,0.0577,–,–,–
F6K,–,–,–,0.0628,–,–,–
F6R,0.0566,–,–,–,–,–,–
P104E,0.0524,0.0448,–,–,0.0505,–,–
R87W,0.0545,0.0641,–,0.0558,0.0382,0.0706,–
R87G,–,–,–,–,0.0685,–,–
R87K,0.0569,–,–,–,–,0.0642,–
F95T,–,0.0624,–,–,–,–,–
F41K,0.0521,0.0506,–,–,–,0.0495,–
F65S,–,0.0612,–,0.0486,0.0637,–,–
L73F,0.0581,0.0634,–,–,–,–,0.0562
N116M,0.0761,0.0676,–,–,–,–,–
N116R,0.0773,–,–,–,0.0534,–,–
G54F,0.0902,0.0549,0.0491,0.0516,–,0.0434,–
L77M,0.057,0.0394,–,0.038,–,0.0599,–
Y34E,0.053,–,–,–,0.0574,–,–
Y34K,–,0.066,–,0.0529,–,–,–
Y34N,0.0518,0.0733,–,–,–,–,0.0704
Y34W,0.0284,–,0.049,–,–,0.0632,–
F101Y,0.0499,–,–,0.0655,–,–,–

Variant,area with substrate WNLYFQS,area with substrate PNLYFQS,area with substrate QNLYFQS,area with substrate YNLYFQS,area with substrate KNLYFQS,area with substrate VNLYFQS,area with substrate RNLYFQS
F101D,0.0429,0.055,–,–,–,–,–
F49S,0.0542,0.0432,–,–,0.059,0.0719,0.0436
G28V,0.0542,0.0573,–,–,0.051,–,–
T114D,–,0.0503,–,–,–,–,–
E103F,–,–,0.0896,–,–,–,–
C111R,0.0676,0.0703,–,0.0477,0.0904,0.1,–
P93F,–,–,–,0.0561,–,–,–
P93Y,–,0.0613,0.0867,–,0.05,0.0425,–
P93Q,0.0539,–,–,–,–,–,–
R109F,–,–,–,–,–,0.0658,–
I86A,0.0647,–,0.0526,–,–,–,–
I86G,0.0363,–,–,0.0411,–,–,–
L5Y,0.048,0.084,–,–,–,–,–
G63K,–,–,–,–,–,0.0502,–
G63C,0.0601,0.0733,–,0.0606,0.062,–,–
F38D,–,0.0487,–,–,–,–,–
Q97K,–,–,–,–,0.0645,0.0522,–
Q97F,0.0717,0.0847,–,0.0547,–,–,–
V58T,0.0422,0.0546,–,–,–,–,–
V58Q,–,0.0618,–,–,–,0.0352,–
L61V,0.093,0.0688,–,–,0.0544,–,–
